The other results are listed elsewhere or left out. No stated cut-off is given here; in the data, active = 3.2 or more and inactive = the rest. Only a few entries rise above the background.
molecular target: SHP2 C-SH2 domain E139D; assay: enrichment score (SH2-bound / input frequency) (ratio); bacterial display of known human phosphotyrosine sites (pTyr-Var adds point mutants) read by sequencing; higher = stronger binding; tyrosines were phosphorylated by kinases first; settings: peptide library: pTyr-Var
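Further: displayed peptides selected on beads carrying the immobilized SH2 domain, with library peptides lacking any tyrosine serving as negative controls.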

| Binder | enrichment score |
| --- | --- |
| DTVRIYDDDFF [UBA1_Y560_E557V] | inactive: 0.718 |
| LFLACYCIGGG [UBD_Y161] | active: 3.9 |
| LFLASYCIGGG [UBD_Y161_C160S] | inactive: 1.42 |
| PQQLWYTHEKK [UBTF_Y207] | inactive: 1.51 |
| GPRSLYNGLVA [UCP2_Y79] | inactive: 0.953 |
| VVQGIYGYHHY [UFSP2_Y285] | inactive: 1.46 |
| VVQGIYGYHHH [UFSP2_Y285_Y290H] | inactive: 2.3 |
| QGIYGYHHYMQ [UFSP2_Y287] | inactive: 2.23 |
| QGIFGYHHHMQ [UFSP2_Y287_Y290H_YF] | inactive: 2.93 |
| QGIFGYHHFMQ [UFSP2_Y287_YF] | inactive: 2.11 |
| IATAIYSGDKI [UGGT2_Y823] | inactive: 0.95 |
| TVLWLYTGTRP [UGT1A1_Y337_R336L] | inactive: 1.96 |
| TVLWQYTGTRP [UGT1A1_Y337_R336Q] | inactive: 0.846 |
| GTQCSYLLSRK [UGT3A1_Y123] | inactive: 0.546 |
| GTQGSYLLSRK [UGT3A1_Y123_C121G] | inactive: 0.49 |
| NLGQQYNSPQE [UMPS_Y432] | inactive: 0.547 |
| NLRQQYNSPQE [UMPS_Y432_G429R] | inactive: 0.711 |
| DSMQSYDLDYP [UNC13B_Y243] | inactive: 0.339 |
| ESMQSYDLDYP [UNC13B_Y243_D238E] | inactive: 0.61 |

molecular target: SHP2 C-SH2 domain wild-type; assay: as above; settings: peptide library: pTyr-Var

| Binder | enrichment score |
| --- | --- |
| DTVRIYDDDFF [UBA1_Y560_E557V] | inactive: 0.744 |
| LFLACYCIGGG [UBD_Y161] | active: 3.46 |
| LFLASYCIGGG [UBD_Y161_C160S] | inactive: 1.32 |
| PQQLWYTHEKK [UBTF_Y207] | inactive: 1.27 |
| GPRSLYNGLVA [UCP2_Y79] | inactive: 0.883 |
| VVQGIYGYHHY [UFSP2_Y285] | inactive: 1.4 |
| VVQGIYGYHHH [UFSP2_Y285_Y290H] | inactive: 2.3 |
| QGIYGYHHYMQ [UFSP2_Y287] | inactive: 2.85 |
| QGIFGYHHHMQ [UFSP2_Y287_Y290H_YF] | inactive: 2.36 |
| QGIFGYHHFMQ [UFSP2_Y287_YF] | inactive: 1.63 |
| IATAIYSGDKI [UGGT2_Y823] | inactive: 0.736 |
| TVLWLYTGTRP [UGT1A1_Y337_R336L] | inactive: 1.45 |
| TVLWQYTGTRP [UGT1A1_Y337_R336Q] | inactive: 0.882 |
| GTQCSYLLSRK [UGT3A1_Y123] | inactive: 0.53 |
| GTQGSYLLSRK [UGT3A1_Y123_C121G] | inactive: 0.487 |
| NLGQQYNSPQE [UMPS_Y432] | inactive: 0.741 |
| NLRQQYNSPQE [UMPS_Y432_G429R] | inactive: 0.558 |
| DSMQSYDLDYP [UNC13B_Y243] | inactive: 0.4 |
| ESMQSYDLDYP [UNC13B_Y243_D238E] | inactive: 0.753 |

molecular target: SHP2 N-SH2 domain L43F; assay: as above; settings: peptide library: pTyr-Var

| Binder | enrichment score |
| --- | --- |
| DTVRIYDDDFF [UBA1_Y560_E557V] | inactive: 0.577 |
| LFLACYCIGGG [UBD_Y161] | active: 4.29 |
| LFLASYCIGGG [UBD_Y161_C160S] | inactive: 0.986 |
| PQQLWYTHEKK [UBTF_Y207] | inactive: 1.59 |
| GPRSLYNGLVA [UCP2_Y79] | inactive: 0.809 |
| VVQGIYGYHHY [UFSP2_Y285] | inactive: 1.14 |
| VVQGIYGYHHH [UFSP2_Y285_Y290H] | inactive: 1.93 |
| QGIYGYHHYMQ [UFSP2_Y287] | inactive: 2 |
| QGIFGYHHHMQ [UFSP2_Y287_Y290H_YF] | inactive: 2.92 |
| QGIFGYHHFMQ [UFSP2_Y287_YF] | inactive: 1.56 |
| IATAIYSGDKI [UGGT2_Y823] | inactive: 0.88 |
| TVLWLYTGTRP [UGT1A1_Y337_R336L] | inactive: 1.47 |
| TVLWQYTGTRP [UGT1A1_Y337_R336Q] | inactive: 0.805 |
| GTQCSYLLSRK [UGT3A1_Y123] | inactive: 0.432 |
| GTQGSYLLSRK [UGT3A1_Y123_C121G] | inactive: 0.501 |
| NLGQQYNSPQE [UMPS_Y432] | inactive: 0.621 |
| NLRQQYNSPQE [UMPS_Y432_G429R] | inactive: 0.696 |
| DSMQSYDLDYP [UNC13B_Y243] | inactive: 0.487 |
| ESMQSYDLDYP [UNC13B_Y243_D238E] | inactive: 0.818 |

molecular target: SHP2 N-SH2 domain T42A; assay: as above; settings: peptide library: pTyr-Var

| Binder | enrichment score |
| --- | --- |
| DTVRIYDDDFF [UBA1_Y560_E557V] | inactive: 0.588 |
| LFLACYCIGGG [UBD_Y161] | inactive: 3.17 |
| LFLASYCIGGG [UBD_Y161_C160S] | inactive: 1.06 |
| PQQLWYTHEKK [UBTF_Y207] | inactive: 1.27 |
| GPRSLYNGLVA [UCP2_Y79] | inactive: 0.768 |
| VVQGIYGYHHY [UFSP2_Y285] | inactive: 1.03 |
| VVQGIYGYHHH [UFSP2_Y285_Y290H] | inactive: 1.77 |
| QGIYGYHHYMQ [UFSP2_Y287] | inactive: 1.97 |
| QGIFGYHHHMQ [UFSP2_Y287_Y290H_YF] | inactive: 2.4 |
| QGIFGYHHFMQ [UFSP2_Y287_YF] | inactive: 1.67 |
| IATAIYSGDKI [UGGT2_Y823] | inactive: 0.76 |
| TVLWLYTGTRP [UGT1A1_Y337_R336L] | inactive: 1.4 |
| TVLWQYTGTRP [UGT1A1_Y337_R336Q] | inactive: 0.722 |
| GTQCSYLLSRK [UGT3A1_Y123] | inactive: 0.595 |
| GTQGSYLLSRK [UGT3A1_Y123_C121G] | inactive: 0.538 |
| NLGQQYNSPQE [UMPS_Y432] | inactive: 0.633 |
| NLRQQYNSPQE [UMPS_Y432_G429R] | inactive: 0.68 |
| DSMQSYDLDYP [UNC13B_Y243] | inactive: 0.356 |
| ESMQSYDLDYP [UNC13B_Y243_D238E] | inactive: 0.557 |

molecular target: SHP2 N-SH2 domain T52S; assay: as above; settings: peptide library: pTyr-Var

| Binder | enrichment score |
| --- | --- |
| DTVRIYDDDFF [UBA1_Y560_E557V] | inactive: 0.766 |
| LFLACYCIGGG [UBD_Y161] | active: 3.64 |
| LFLASYCIGGG [UBD_Y161_C160S] | inactive: 0.977 |
| PQQLWYTHEKK [UBTF_Y207] | inactive: 1.37 |
| GPRSLYNGLVA [UCP2_Y79] | inactive: 0.735 |
| VVQGIYGYHHY [UFSP2_Y285] | inactive: 1.33 |
| VVQGIYGYHHH [UFSP2_Y285_Y290H] | inactive: 2.46 |
| QGIYGYHHYMQ [UFSP2_Y287] | inactive: 1.87 |
| QGIFGYHHHMQ [UFSP2_Y287_Y290H_YF] | inactive: 2.83 |
| QGIFGYHHFMQ [UFSP2_Y287_YF] | inactive: 1.68 |
| IATAIYSGDKI [UGGT2_Y823] | inactive: 0.914 |
| TVLWLYTGTRP [UGT1A1_Y337_R336L] | inactive: 1.74 |
| TVLWQYTGTRP [UGT1A1_Y337_R336Q] | inactive: 0.831 |
| GTQCSYLLSRK [UGT3A1_Y123] | inactive: 0.54 |
| GTQGSYLLSRK [UGT3A1_Y123_C121G] | inactive: 0.345 |
| NLGQQYNSPQE [UMPS_Y432] | inactive: 0.611 |
| NLRQQYNSPQE [UMPS_Y432_G429R] | inactive: 0.614 |
| DSMQSYDLDYP [UNC13B_Y243] | inactive: 0.497 |
| ESMQSYDLDYP [UNC13B_Y243_D238E] | inactive: 0.685 |

molecular target: SHP2 N-SH2 domain wild-type; assay: as above; settings: peptide library: pTyr-Var

| Binder | enrichment score |
| --- | --- |
| DTVRIYDDDFF [UBA1_Y560_E557V] | inactive: 0.721 |
| LFLACYCIGGG [UBD_Y161] | active: 3.48 |
| LFLASYCIGGG [UBD_Y161_C160S] | inactive: 1.29 |
| PQQLWYTHEKK [UBTF_Y207] | inactive: 1.19 |
| GPRSLYNGLVA [UCP2_Y79] | inactive: 0.877 |
| VVQGIYGYHHY [UFSP2_Y285] | inactive: 1.42 |
| VVQGIYGYHHH [UFSP2_Y285_Y290H] | inactive: 2.08 |
| QGIYGYHHYMQ [UFSP2_Y287] | inactive: 2.11 |
| QGIFGYHHHMQ [UFSP2_Y287_Y290H_YF] | inactive: 2.3 |
| QGIFGYHHFMQ [UFSP2_Y287_YF] | inactive: 1.42 |
| IATAIYSGDKI [UGGT2_Y823] | inactive: 1.18 |
| TVLWLYTGTRP [UGT1A1_Y337_R336L] | inactive: 1.73 |
| TVLWQYTGTRP [UGT1A1_Y337_R336Q] | inactive: 0.742 |
| GTQCSYLLSRK [UGT3A1_Y123] | inactive: 0.521 |
| GTQGSYLLSRK [UGT3A1_Y123_C121G] | inactive: 0.527 |
| NLGQQYNSPQE [UMPS_Y432] | inactive: 0.611 |
| NLRQQYNSPQE [UMPS_Y432_G429R] | inactive: 0.849 |
| DSMQSYDLDYP [UNC13B_Y243] | inactive: 0.41 |
| ESMQSYDLDYP [UNC13B_Y243_D238E] | inactive: 0.941 |
